153 variants from a collection of fitness landscapes (doi:10.1126/science.1257360) can be followed below.

To fix the notation:
B1: PhoQ; a variant is named by its letters at X, in order, P23837 (parent)
chain: MKKLLRLFFPLSLRVRFLLATAAVVLVLSLAYGMVALIGYSVSFDKTTFRLLRGESNLFYTLAKWENNKLHVELPENIDKQSPTMTLIYDENGQLLWAQRDVPWLMKMIQPDWLKSNGFHEIEADVNDTSLLLSGDHSIQQQLQEVREDDDDAEMTHSVAVNVYPATSRMPKLTIVVVDTIPVELKSSYMVWSWFIYVLSANLLLVIPLLWVAAWWSLRPIEALAKEVRELEEHNRELLNPATTRELTSLVRNLNRLLKSERERYDKYRTTLTDLTHSLKTPLXXLQXXLRSLRSEKMSVSDAEPVMLEQISRISQQIGYYLHRASMRGGTLLSRELHPVAPLLDNLTSALNKVYQRKGVNISLDISPEISFVGEQNDFVEVMGNVLDNACKYCLEFVEISARQTDEHLYIVVEDDGPGIPLSKREVIFDRGQRVDTLRPGQGVGLAVAREITEQYEGKIVAGESMLGGARMEVIFGRQHSAPKDE

This is one part of the list.

In the test the parent is B1. The test is described as follows: enrichment ratio after two sorts for PhoP signalling (ratio (wild type AVST 3.29)); higher = more functional. The conditions noted are these: with PhoP (E. coli).
For WYWQ, the enrichment ratio is at most 0.25.
In the case of STEN, the enrichment ratio was at most 0.25.
In the case of NFEI it was at most 0.25; in that of MHRA, at most 0.25.
IEII: the enrichment ratio is at most 0.25.
For VTSD the value was at most 0.25.
EHMD: the enrichment ratio was at most 0.25.
As to YTIM, the enrichment ratio is 1.25.
Turning to GDYQ, the enrichment ratio was at most 0.25.
As for IWTQ, the enrichment ratio is at most 0.25.
For MHNS the value was at most 0.25; for EAYT, at most 0.25.
For the variant VLNH, the enrichment ratio is at most 0.25.
In the case of HCPM it was at most 0.25; in that of QYSP, at most 0.25.
For PGKY the value was at most 0.25; for NEAW, at most 0.25.
With IQSN, the enrichment ratio is at most 0.25.
With RMFK, the enrichment ratio was at most 0.25.
In the case of DPQK it was at most 0.25; in that of LGFD, 1.27.
As to GVWY, the enrichment ratio is at most 0.25.
For RGYK the value was at most 0.25.
For AHWW the value was at most 0.25; for MGWI, 1.07.
Turning to YTVS, the enrichment ratio is at most 0.25.
In the case of EASE it was at most 0.25; in that of RVDQ, at most 0.25; in that of LNTK, at most 0.25.
In the case of FMTR it was at most 0.25; in that of GCLM, 16.5; in that of NSNW, at most 0.25.
MGNM: the enrichment ratio is at most 0.25.
In the case of FKRP it was at most 0.25; in that of HYPD, at most 0.25.
For ITCH, the enrichment ratio is at most 0.25.
In the case of GYMI it was at most 0.25; in that of ADAC, 0.792; in that of IFVS, at most 0.25.
For WQGM the value was at most 0.25.
For GLII the value was 0.337.
For the variant YHCP, the enrichment ratio is at most 0.25.
In the case of DGRW it was at most 0.25; in that of AMYD, at most 0.25.
As to HDDQ, the enrichment ratio is at most 0.25.
As for VTVP, the enrichment ratio is at most 0.25.
In the case of ARMF, the enrichment ratio is at most 0.25.
In the case of MHEY it was at most 0.25; in that of PITQ, at most 0.25.
In the case of QPGI, the enrichment ratio was at most 0.25.
As to QRDT, the enrichment ratio was at most 0.25.
With AMRA, the enrichment ratio is at most 0.25.
Turning to FEAD, the enrichment ratio was at most 0.25.
For HHRR the value was at most 0.25; for HHVH, at most 0.25; for VAFF, 0.535.
In the case of FQIN it was at most 0.25; in that of FWWS, at most 0.25.
VHAW: the enrichment ratio is at most 0.25.
For the variant DFRC, the enrichment ratio is at most 0.25.
For ELAE the value was at most 0.25.
SNQL: the enrichment ratio was 8.37.
HRSM: the enrichment ratio is at most 0.25.
For the variant FVLK, the enrichment ratio is 1.61.
In the case of FYAI it was at most 0.25.
Consider KSGT, for which the enrichment ratio was at most 0.25.
Consider FYED, for which the enrichment ratio was at most 0.25.
Consider VSLA, for which the enrichment ratio came to 0.756.
For QYKP the value was at most 0.25.
Turning to NNWV, the enrichment ratio was at most 0.25.
Regarding MDNL, the enrichment ratio was at most 0.25.
In the case of FRWL it was at most 0.25; in that of YEDH, at most 0.25.
For EMLM the value was at most 0.25.
For PYCQ the value was at most 0.25.
On to NKVQ, for which the enrichment ratio was at most 0.25.
For SRVD the value was at most 0.25.
In the case of TGKA it was at most 0.25; in that of PYTK, at most 0.25.
ECYY: the enrichment ratio was at most 0.25.
For SLKC the value was at most 0.25.
For LLFA the value was at most 0.25; for GFCA, at most 0.25; for YYGS, at most 0.25.
With DITG, the enrichment ratio is at most 0.25.
In the case of GGPC it was at most 0.25; in that of NWRE, at most 0.25; in that of RHDG, at most 0.25.
As for WWLI, the enrichment ratio is at most 0.25.
In the case of WENC it was at most 0.25; in that of FKKF, at most 0.25; in that of VRKF, at most 0.25.
On to SESV, for which the enrichment ratio is 16.9.
For AFMA the value was at most 0.25.
On to FSIE, for which the enrichment ratio was at most 0.25.
In the case of ANRQ it was at most 0.25; in that of WYLE, at most 0.25; in that of AITF, 15.
In the case of WLVI it was at most 0.25; in that of YAHY, at most 0.25.
For HMRT the value was at most 0.25; for KKTV, 0.887.
With RKER, the enrichment ratio was at most 0.25.
In the case of QVPQ it was at most 0.25; in that of VTWR, at most 0.25.
In the case of AHPM it was at most 0.25; in that of TAYA, 4.54; in that of AKTP, at most 0.25.
VGAG: the enrichment ratio is at most 0.25.
For the variant SKNF, the enrichment ratio is at most 0.25.
In the case of VGNW it was at most 0.25.
In the case of SDFT it was at most 0.25; in that of MYCW, at most 0.25.
Regarding NMCC, the enrichment ratio was at most 0.25.
As for IIAR, the enrichment ratio is at most 0.25.
As to DRLN, the enrichment ratio is at most 0.25.
In the case of KMVT it was at most 0.25; in that of TELN, 21.6; in that of WDHT, at most 0.25.
For PALH the value was at most 0.25.
In the case of APGL it was at most 0.25.
As for SYHN, the enrichment ratio is at most 0.25.
With YWCG, the enrichment ratio is at most 0.25.
For NIYG the value was at most 0.25.
Turning to GHTM, the enrichment ratio was at most 0.25.
In the case of TCNQ it was at most 0.25.
In the case of DVYW it was at most 0.25; in that of RNDG, at most 0.25.
For GHRD the value was at most 0.25.
Turning to LDES, the enrichment ratio is at most 0.25.
In the case of RRCH it was at most 0.25; in that of NKIK, at most 0.25; in that of LKSM, at most 0.25.
As to PQCM, the enrichment ratio is at most 0.25.
As to VRHP, the enrichment ratio was at most 0.25.
With DKHC, the enrichment ratio was at most 0.25.
In the case of TKPI it was at most 0.25.
For VNLC the value was 3.35; for HKEW, at most 0.25.
Consider IWTH, for which the enrichment ratio was at most 0.25.
For KIDS the value was at most 0.25.
In the case of QRQA it was at most 0.25; in that of ERTY, at most 0.25.
For GFYE the value was at most 0.25.
Consider YECD, for which the enrichment ratio was at most 0.25.
Consider HRYY, for which the enrichment ratio was at most 0.25.
In the case of DQCN it was at most 0.25; in that of DRMH, at most 0.25; in that of QGAR, at most 0.25.
For SHGV the value was at most 0.25; for WNGP, at most 0.25.
For QSKD the value was at most 0.25; for LHCY, at most 0.25.
